According to PubChem BioAssay AID652104 (National Center for Advancing Translational Sciences (NCATS), 2013):
Hit rate of the full screen: of about 410,000 compounds, about 7,200 (1.8%) were called active. Inconclusive means that the source gave no clear call. Such entries were picked first, then a sample of the others. The call rests on the fitted dose curve; in most records, active means well fitted activation curve with a large enough effect; inconclusive means small, poorly fitted or top-dose-only effect, or another doubt; inactive means no such curve, though single readings can be large or run the other way. Where the call is inconclusive, the potency comes from a doubtful curve fit.

Experiment: qHTS of TDP-43 Inhibitors; further: nearly all actives have a fitted effect of over 50% in size
Settings: TDP-43 expressing yeast growth rescue, BacTiter-Glo, 24 h; series mostly up to 46.1 µM
How it was run: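 Growth rescue of TDP-43-toxic yeast measured as ATP luminescence (BacTiter-Glo). Cells grown to mid-log in raffinose, induced in galactose at OD600=0.02, exposed to compound 24 hr at 30 deg C.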
Potency means the concentration at half of the fitted maximal effect; tags describe the fitted curve by direction and shape.

Potency, inactive:
Cc1ccc(C(=O)C[n+]2ccc(-c3nnc4n3CCC4)cc2)cc1, COc1ccc2c(CNCc3ccco3)c(C(=O)O)n(Cc3ccc(F)cc3Cl)c2c1, O=C(/C=C/c1ccc(Cl)cc1Cl)Nc1ccncc1, NNC(=O)c1cc2c(s1)CCCCCC2, CCOC(=O)c1sc2ncn(CC(=O)Nc3cccc(C)c3)c(=O)c2c1C, Nc1ccn(-c2ccccc2)c(=O)c1, Cc1cc2ncc(-c3ccc(Cl)cc3)c(N)n2n1, CN1CCN(C(=O)c2c(NC(=O)c3ccco3)sc3c2CCC(C(C)(C)C)C3)CC1 (configuration not stated)

Potency, inconclusive:
O=C(Nc1ccc(Cl)c(Cl)c1)C1CCCCC1 35.5 µM [activator, single point], COc1ccccc1N1CCN(C(=O)c2cc(-c3cccs3)on2)CC1 14.1 µM [activator, single point], COc1ccc(CN(C)C(=O)C2CC(=O)N(c3ccc4c(c3)OCCO4)C2)cc1 (configuration not stated) 28.2 µM [activator, single point], O=C(c1ccccc1Br)N1CCC(c2nc3ccccc3s2)CC1 14.1 µM [activator, partial curve], Cc1ccc2c(c1)nnn2C1CCN(C(=O)c2cccs2)CC1 17.8 µM [activator, single point], Cc1ccc(Cn2cc(CCC(=O)O)c3ccccc32)cc1 35.5 µM [activator, single point], CCCc1ccc(-c2c(C)sc(N)c2C#N)cc1 35.5 µM [activator, single point], COc1cc(OC)cc(C(=O)NCCc2csc(-c3cccc(C)c3)n2)c1 22.4 µM [activator, single point], CCCCC1Cc2[nH]c(=S)[nH]c(=O)c2C(c2cccc3ccccc23)O1 (configuration not stated) 22.4 µM [activator, partial curve, poor fit], CCOc1ccccc1C(N)=O 8.91 µM [activator, partial curve, poor fit], O=c1c(-c2nc3ccccc3s2)cccn1Cc1ccccc1 3.55 µM [activator, partial curve], Cc1ccc(-n2cc3c(-c4cccc(Br)c4)nnc(C)c3n2)cc1 3.55 µM [activator, partial curve]

Potency, active:
CC(C)N(Cc1ccccc1)C(=O)c1cc2ccc3cccnc3c2[nH]1 22.4 µM, COc1ccc(/C=N/NC(=O)c2ccn[nH]2)cc1COc1ccc(Cl)cc1 17.8 µM
